Data: article PMC4336329 (PLoS ONE, 2015)
The campaign covered roughly 310,000 compounds. About 2,200 (0.71%) showed an effect of 50% or more. The effect is printed as a negative number. The list shows a part of the results.

molecular target: human ether-à-go-go-related gene (hERG) potassium channel (human, UniProt Q12809); experiment: primary screen, population patch clamp on CHO cells stably expressing hERG
Sequence (Q12809 whole entry, looked up): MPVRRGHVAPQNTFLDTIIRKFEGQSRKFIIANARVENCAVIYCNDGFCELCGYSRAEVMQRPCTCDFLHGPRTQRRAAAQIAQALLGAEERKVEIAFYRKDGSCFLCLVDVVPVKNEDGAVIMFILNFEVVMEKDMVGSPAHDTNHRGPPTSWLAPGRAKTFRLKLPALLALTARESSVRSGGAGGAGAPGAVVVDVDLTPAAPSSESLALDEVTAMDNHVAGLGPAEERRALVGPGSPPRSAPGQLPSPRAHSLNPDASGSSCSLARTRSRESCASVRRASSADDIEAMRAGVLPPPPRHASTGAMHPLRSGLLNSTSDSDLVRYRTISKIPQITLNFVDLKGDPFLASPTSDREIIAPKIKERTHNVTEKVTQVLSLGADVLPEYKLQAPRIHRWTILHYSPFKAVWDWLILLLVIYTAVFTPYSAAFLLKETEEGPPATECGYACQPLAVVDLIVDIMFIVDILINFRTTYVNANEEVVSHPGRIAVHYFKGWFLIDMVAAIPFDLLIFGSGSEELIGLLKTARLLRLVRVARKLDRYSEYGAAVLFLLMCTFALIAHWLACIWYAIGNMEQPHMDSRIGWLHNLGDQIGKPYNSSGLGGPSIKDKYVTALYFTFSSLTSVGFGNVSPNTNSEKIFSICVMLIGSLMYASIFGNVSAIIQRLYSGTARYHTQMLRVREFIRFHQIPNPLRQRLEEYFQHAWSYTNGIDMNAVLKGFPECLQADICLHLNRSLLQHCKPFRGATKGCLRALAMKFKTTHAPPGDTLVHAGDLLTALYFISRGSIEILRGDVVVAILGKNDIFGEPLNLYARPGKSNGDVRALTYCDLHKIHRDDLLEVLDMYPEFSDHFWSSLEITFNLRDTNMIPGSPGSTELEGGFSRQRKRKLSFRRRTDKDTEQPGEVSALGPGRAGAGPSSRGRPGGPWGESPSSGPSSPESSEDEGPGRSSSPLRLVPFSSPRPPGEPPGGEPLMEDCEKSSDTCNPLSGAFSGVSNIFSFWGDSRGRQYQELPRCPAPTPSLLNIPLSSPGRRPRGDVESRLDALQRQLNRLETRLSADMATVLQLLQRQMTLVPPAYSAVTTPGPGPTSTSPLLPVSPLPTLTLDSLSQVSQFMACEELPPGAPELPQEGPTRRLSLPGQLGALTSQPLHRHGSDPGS

| Compound | hERG current change (%, negative = inhibition) at 1uM |
| --- | --- |
| O=C(CN(c1ccc2c(c1)OCCO2)S(=O)(=O)c1ccccc1)N1CCN(Cc2ccccc2)CC1 | 12.4% |
| Cc1cc(Br)ccc1OCCCCNCCO.O=C(O)C(=O)O | 3.97% |
| O=C(Nc1cccc(S(=O)(=O)N2CCOCC2)c1)[C@@H]1CCCN1S(=O)(=O)c1ccc(Cl)cc1 | 6.17% |
| COc1ccc(N2CCN(C3CCCN(S(=O)(=O)c4ccc(C)cc4C)C3)CC2)cc1 (stereo not shown) | 11.2% |
| CCOC(=O)N1CCN(C(=O)c2ccc3c(c2)N(Cc2ccc(F)cc2)CCS3)CC1 | 1.33% |
| CCCc1cc(=O)n2[nH]c(C)cc2n1 | -9.61% |
| CSc1ncccc1C(=O)N1CCCC(Nc2ccc(C)c(C)c2)C1 (stereo not shown) | 12.1% |
| O=Nc1c(-c2ccccc2)[nH]n(-c2ccccc2)c1=O | 10.3% |
| CC1(C)CC(=O)C=C(c2ccc(Oc3ccccc3)cc2)C1 | 11.2% |
| CCS(=O)(=O)Nc1c(C(=O)OC)[nH]c2ccccc12 | 6.05% |
| Cc1nnc2ccc(-c3ccc(NS(C)(=O)=O)cc3)nn12 | 0.745% |
| Cc1ccc(Cn2c(=N)c(C(=O)NC3CCCC3)cc3c(=O)n4ccccc4nc32)cc1 | -73.4% |
| CN(C)CCCN1CC(C(=O)O)CC1=O (stereo not shown) | 12.5% |
| Cc1ccc(N2C(=O)NC(NC(=O)C(C)(C)C)(C(F)(F)F)C2=O)cc1C (stereo not shown) | 8.36% |
| COC(=O)C1=CN(Cc2ccccc2)C=C(C(=O)OC)C1c1ccc(OC)c(OC)c1 | 13.4% |
| CC1CCCN(CC(=O)Nc2cc(S(=O)(=O)N3CCOCC3)ccc2N2CCCC2)C1 (stereo not shown) | 5.6% |
| Cn1c(=O)n(C)c2cc(N3CCCCC3)c(NC(=O)c3cccc(Cl)c3)cc21 | 3.79% |
| O=c1[nH]c(-c2ccccc2)cs1 | -0.516% |
| CCOC(=O)c1nnc(-c2ccc(C)cc2)nc1Sc1ccccc1Cl | 11% |
| CC(=O)c1sc(NC(=O)c2ccccc2C)nc1C | 11.8% |
| CCN(CC)C(=O)/C(=C/c1cccc([N+](=O)[O-])c1)NC(=O)c1ccco1 | -1.66% |
| Cc1[nH]n(-c2ccccc2)c(=S)c1C=Nc1cccc([N+](=O)[O-])c1 | 0.845% |

| Compound | hERG current change (%, negative = inhibition) at 1uM |
| --- | --- |
| O=S(=O)(NCCCN1CCOCC1)c1ccc2ccccc2c1 | 12.1% |
| COc1ccc2c(c1)c(=O)oc1c(C)c(OCc3cc(C(=O)O)oc3C)ccc12 | 13.9% |
| CCOc1ccc(-n2c(SCC(=O)NC)nnc2-c2ccco2)cc1 | -2.29% |
| Cc1cc(S(=O)(=O)Nc2ccc(N3CCOCC3)cc2)ccc1Br | 10.4% |
| O=C1CCCCC1C(=O)c1ccccc1 (stereo not shown) | 14.9% |
| Cl.Oc1ccc(COCc2ccccc2)c2cccnc12 | 0.951% |
| COC(=O)c1cc(S(=O)(=O)NCC2CCN(Cc3cc(C)ccc3C)CC2)c[nH]1 | 2.48% |
| CCN(Cc1nc2ccccc2c(=O)[nH]1)C(=O)CN1C(=O)NC2(CCCCC2C)C1=O (stereo not shown) | 5.72% |
| CS(=O)(=O)NNC(=O)Cn1nnc(-c2cc(C(F)(F)F)cc(C(F)(F)F)c2)n1 | 13.9% |
| CN(C)C(=O)Oc1ccc2c(c1)O/C(=C\c1cccc(Cl)c1)C2=O | 10.6% |
| CSc1cccc(-n2ccc(=O)c(C)c2C)c1 | 10.4% |
| CCCOC(=S)N/C(=N\S(=O)(=O)c1ccccc1)c1ccccc1 | 1.68% |
| COc1ccc(-c2cn(-c3ccccc3)c(=S)[nH]2)cc1OC | 12.8% |
| CC12CCC(=O)N1C(C(=O)Nc1ccc(Cl)c(S(=O)(=O)N3CCCCC3)c1)CS2 (stereo not shown) | -3.44% |
| Cn1c(=O)n(CCc2ccccc2)c(=O)c2c1nc1n2CCN1Cc1ccco1 | -28.7% |
| CC(OC(=O)CCCOc1ccccc1)C(=O)NC(N)=O (stereo not shown) | 11.7% |
| CCOc1ccc(C(C)(C)C)cc1S(=O)(=O)Nc1ccncc1 | 15.4% |
| CC(C)C(C(=O)NCc1ccco1)N(Cc1ccco1)C(=O)CNS(=O)(=O)c1ccc(F)cc1 (stereo not shown) | 15.3% |
| CCCNC(=O)c1nnsc1Sc1ccc(Cl)cc1 | 6.05% |
| CC(=O)Nc1ccc(/C(C)=N/NC(=O)c2ccccc2Cl)cc1 | 6.93% |
| C/C(=N\NC(=O)c1ccc(-n2cnnn2)cc1)c1ccc(Cl)cc1 | 3.65% |
| Fc1ccc(NC(=S)N/N=C/c2ccc(F)c(F)c2)cc1 | 9.19% |

| Compound | hERG current change (%, negative = inhibition) at 1uM |
| --- | --- |
| CCCCN(C)CCNC(=O)CCn1nc(-c2ccc(Cl)cc2)ccc1=O | -11.9% |
| O=C(Nc1ccc(S(=O)(=O)Nc2ncccn2)cc1)C1COc2ccccc2O1 (stereo not shown) | 7.4% |
| COc1ccccc1NC(=O)C1CCC(CNc2c(N3CCCCC3)c(=O)c2=O)CC1 (stereo not shown) | 16.7% |
| COc1cccc2sc(Nc3nc(-c4ccccn4)cs3)nc12 | 16% |
| Cc1cc(C)c(S(=O)(=O)Nc2ccc(Cl)cn2)c(C)c1 | 5.16% |
| CCCCC1OC23CCCCC2C(C#N)(C#N)C1(C#N)C(=N)O3 (stereo not shown) | 6.89% |
| Brc1cccc(-c2cnco2)c1 | 5.28% |
| COc1ccc(-c2c(C#N)c(N)nc3c2c(=O)n(C)c(=O)n3C)cc1 | 6.42% |
| O=C(NCC(c1cccnc1)N1CCN(c2ccccc2F)CC1)C1CCCCC1 (stereo not shown) | -3.18% |
| COc1ccccc1S(=O)(=O)c1c(C)cc(C)[nH]c1=O | 13.6% |
| CC(=O)c1ccc(NC(=O)c2ccc(C)c(S(=O)(=O)N3CCOCC3)c2)cc1 | 12.1% |
| O=C(N/C(=C/c1ccccc1)C(=O)N1CCCCC1)c1ccc(Br)o1 | -0.572% |
| COCCN1C(=O)N[C@@H](c2ccccc2)C(C(=O)OC)=C1C | 13.2% |
| COc1ccc(C(=O)COC(=O)CNC(=O)c2ccc(Cl)cc2Cl)c(OC)c1 | 14.3% |
| COc1ccc(N2C(N)=NC(N)=NC2(C)C)cc1.Cl | 9.23% |
| COc1cc(/C=N/N=C(/C(=O)c2ccccc2)c2ccccc2)cc(OC)c1O | 12.1% |
| O=C(NCCCN1CCOCC1)c1ccc(CS(=O)(=O)Cc2ccc(Cl)cc2)o1 | 6.42% |
| COc1ccc(C2CC(=O)c3sc(N)nc3C2)cc1 (stereo not shown) | 14.8% |
| CCCNC(=O)C(Cc1ccccc1C)NC(=O)c1ccc(C#N)cc1 (stereo not shown) | 19% |
| CCn1nc(C)c(CNC(=O)CC2C(=O)NCCN2CC(C)C)c1C (stereo not shown) | 11.8% |
| Cc1c(C(=O)Nc2ccccn2)oc2c(Cl)cccc12 | 11.4% |
| CCC(C)c1ccc(NC(=S)NC(C)C2CCCO2)cc1 (stereo not shown) | 0.4% |

| Compound | hERG current change (%, negative = inhibition) at 1uM |
| --- | --- |
| S=C(Nc1ccc(Br)cc1)N1CCCC1 | 7.68% |
| Nc1c(C(=O)OCC2CCCO2)c2nc3ccccc3nc2n1C1CCCC1 (stereo not shown) | 5.99% |
| O=C(O)c1ccc(-c2nnn(Cc3ccccc3F)n2)cc1 | 33.7% |
| CC(C(=O)c1ccccc1)N1C(=O)c2ccccc2C1=O (stereo not shown) | 11.9% |
| CC(C)CC(=O)Nc1cccc(C(=O)Nc2ccccc2C(=O)O)c1 | -1.97% |
| CN(CCOc1ccc(Cl)c(Cl)c1)Cc1ccccc1.O=C(O)C(=O)O | 19.7% |
| O=C(Nc1ccc(C(=O)N2CCCC2)cc1)c1ccc(F)cc1Cl | 9.39% |
| Cc1ccc(C)c2[nH]c(=O)c(CN(CC3CCCO3)C(=O)NC3CCCCC3)cc12 (stereo not shown) | 11.2% |
| COc1cc2[nH]c(C(=O)N(C)C3CCS(=O)(=O)C3)cc2c(OC)c1OC (stereo not shown) | 12.1% |
| COC(=O)c1ccc(CN2CCN(Cc3ccc(F)cc3)C(CCO)C2)cc1 (stereo not shown) | 16.6% |
| O=C(COc1ccc(Br)cc1)Nc1ccc(N2CCOCC2)cc1N1CCOCC1 | 1.83% |
| CCOc1cc(C(=O)NCc2ccco2)cc(OCC)c1OCC | -3.65% |
| COc1ccc(-c2cc(C(=O)OCC(=O)c3cccc([N+](=O)[O-])c3)c3cc(C)ccc3n2)cc1 | 9.31% |
| CC(=O)c1cccc(NC(=O)C2=CC(c3ccc4c(c3)OCO4)=NS(=O)(=O)N2C)c1 | 14.9% |
| Cc1ccc(NC(=O)CN(C)C(=O)c2ccc(S(=O)(=O)N(C)c3ccccc3)cc2)cc1 | 11.1% |
| Cc1csc(OCc2ccc(C#N)cc2)n1 | 0.531% |
| Cc1ccc(S(=O)(=O)N2CCOCC2)cc1C(=O)NC1CCCC(C)C1C (stereo not shown) | -6.75% |
| COc1cc(C)c(/C=C(\C#N)C(=O)Nc2cccc(C)c2)cc1C(C)C | -1.75% |
| COc1cccc(-n2c(SCC(=O)Nc3cc(C)on3)nc3ccccc3c2=O)c1 | -8.56% |
| CCN(C(=O)Cn1cc(C(F)(F)F)ccc1=O)c1c(N)n(Cc2ccccc2)c(=O)[nH]c1=O | 2.53% |
| O=C(COC(=O)C1CCN(c2ccc(C(F)(F)F)cn2)CC1)NCc1ccc(Cl)cc1Cl | 7.52% |
| CCC(=O)c1ccc(Oc2ccc(C(=O)c3ccc(C)cc3)cc2[N+](=O)[O-])cc1 | 11.1% |
